# Laboratory results from PMC11442847.
# Molecular target: Integrin alpha-5 (UniProt P08648)
# Assay: cross-link between two proteins; co-fractionation; cross-linking mass spectrometry
# UniProt P08648, sequence (P08648 whole entry): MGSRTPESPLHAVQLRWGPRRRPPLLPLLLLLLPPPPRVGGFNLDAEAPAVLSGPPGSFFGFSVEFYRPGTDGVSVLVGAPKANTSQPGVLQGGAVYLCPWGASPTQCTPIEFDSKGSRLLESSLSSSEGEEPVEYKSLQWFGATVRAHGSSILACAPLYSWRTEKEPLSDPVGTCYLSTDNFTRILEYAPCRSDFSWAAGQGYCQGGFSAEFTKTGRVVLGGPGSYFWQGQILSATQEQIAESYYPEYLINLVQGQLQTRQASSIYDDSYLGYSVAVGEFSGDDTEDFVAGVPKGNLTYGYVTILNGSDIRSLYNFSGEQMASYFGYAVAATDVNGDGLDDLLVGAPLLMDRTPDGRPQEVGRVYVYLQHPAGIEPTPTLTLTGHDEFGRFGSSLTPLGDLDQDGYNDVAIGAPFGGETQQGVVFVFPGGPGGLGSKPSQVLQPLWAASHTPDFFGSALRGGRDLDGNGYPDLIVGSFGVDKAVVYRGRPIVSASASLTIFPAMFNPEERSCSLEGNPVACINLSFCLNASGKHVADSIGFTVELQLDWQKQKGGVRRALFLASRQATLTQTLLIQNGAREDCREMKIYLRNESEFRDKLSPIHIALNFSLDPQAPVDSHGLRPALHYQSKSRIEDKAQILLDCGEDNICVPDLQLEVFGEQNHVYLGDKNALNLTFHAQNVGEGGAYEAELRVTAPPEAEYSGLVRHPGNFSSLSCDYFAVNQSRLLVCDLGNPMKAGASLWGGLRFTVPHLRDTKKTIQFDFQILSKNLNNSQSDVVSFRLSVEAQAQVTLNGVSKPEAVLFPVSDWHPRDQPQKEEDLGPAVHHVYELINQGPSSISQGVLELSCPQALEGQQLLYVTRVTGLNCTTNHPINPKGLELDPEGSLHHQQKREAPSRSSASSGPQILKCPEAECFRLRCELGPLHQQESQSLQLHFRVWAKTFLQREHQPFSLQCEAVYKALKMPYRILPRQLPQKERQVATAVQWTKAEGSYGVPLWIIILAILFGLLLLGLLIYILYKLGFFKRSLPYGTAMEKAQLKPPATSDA
# Integrin beta-1, sequence (chain, as listed by the source): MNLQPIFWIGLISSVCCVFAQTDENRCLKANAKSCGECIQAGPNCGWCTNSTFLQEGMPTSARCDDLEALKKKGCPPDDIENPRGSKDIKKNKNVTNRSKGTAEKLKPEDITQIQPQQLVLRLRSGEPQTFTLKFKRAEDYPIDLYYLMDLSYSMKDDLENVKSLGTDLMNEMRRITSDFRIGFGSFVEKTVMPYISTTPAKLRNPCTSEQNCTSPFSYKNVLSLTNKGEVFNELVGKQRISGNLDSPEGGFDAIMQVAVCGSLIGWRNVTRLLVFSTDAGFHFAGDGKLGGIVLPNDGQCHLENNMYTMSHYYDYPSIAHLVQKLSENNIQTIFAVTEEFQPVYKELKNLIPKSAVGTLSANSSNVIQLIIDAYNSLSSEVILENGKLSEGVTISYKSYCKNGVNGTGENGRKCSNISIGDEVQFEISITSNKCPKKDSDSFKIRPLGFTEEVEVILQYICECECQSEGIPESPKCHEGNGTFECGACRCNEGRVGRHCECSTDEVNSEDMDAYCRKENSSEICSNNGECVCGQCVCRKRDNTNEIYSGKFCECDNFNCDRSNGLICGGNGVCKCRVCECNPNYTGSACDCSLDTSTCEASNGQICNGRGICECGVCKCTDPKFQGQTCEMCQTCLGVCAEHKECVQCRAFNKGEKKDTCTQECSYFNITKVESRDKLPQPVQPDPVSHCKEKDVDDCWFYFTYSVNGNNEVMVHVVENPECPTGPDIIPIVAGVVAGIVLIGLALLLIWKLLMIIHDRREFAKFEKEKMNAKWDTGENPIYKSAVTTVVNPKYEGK
substance,measurement,value
Integrin beta-1,listed as a hit,yes
